# Measurements from US7592316B2, “Peptides as NS3-serine protease inhibitors of hepatitis C virus” (Schering Corporation, priority 2000, dated 2009).
# Molecular target: HCV NS3/NS4A protease (strain 1a) (Hepatitis C virus genotype 1a, UniProt P27958)
# Assay: biochemical
# Conditions: Table 4; HCV NS3/NS4A protease, spectrophotometric assay, 30° C., pH 6.5; read-out: Ki* Range
# Experimental: Assay for HCV Protease Inhibitory Activity:
# Spectrophotometric Assay Spectrophotometric assay for the HCV serine protease was performed on the inventive compounds by following the procedure described by R. Zhang et al, Analytical Biochemistry, 270 (1999) 268-275, the disclosure of which is incorporated herein by reference. The assay based on the proteolysis of chromogenic ester substrates is suitable for the continuous monitoring of HCV NS3 protease activity. The substrates were derived from the P side of the NS5A-NS5B junction sequence (Ac-DTEDWX(Nva), where X=A or chromophoric alcohols (3- or 4-nitrophenol, 7-hydroxy-4-methyl-coumarin, or 4-phenylazophenol). Presented below are the synthesis, characterization and application of these novel spectrophotometric ester substrates to high throughput screening and detailed kinetic evaluation of HCV NS3 protease inhibitors.
# Protein concentrations were determined by the Biorad dye method using recombinant HCV protease standards previously quantified by amino acid analysis. Prior to assay initiation, the enzyme storage buffer (50 mM sodium phosphate pH 8.0, 300 mM NaCl, 10% glycerol, 0.05% lauryl maltoside and 10 mM DTT) was exchanged for the assay buffer (25 mM MOPS pH 6.5, 300 mM NaCl, 10% glycerol, 0.05% lauryl maltoside, 5 μM EDTA and 5 μM DTT) utilizing a Biorad Bio-Spin P-6 prepacked column.
# Protease Assay: HCV protease assays were performed at 30° C. using a 200 μl reaction mix in a 96-well microtiter plate. Assay buffer conditions (25 mM MOPS pH 6.5, 300 mM NaCl, 10% glycerol, 0.05% lauryl maltoside, 5 μM EDTA and 5 μM DTT) were optimized for the NS3/NS4A heterodimer (D. L. SalI et al, ibid.)). […] Fifty μls of prewarmed protease (12 nM, 30° C.) in assay buffer, was then used to initiate the reaction (final volume 200 μl). The plates were monitored over the length of the assay (60 minutes) for change in absorbance at the appropriate wavelength (340 nm for 3-Np and HMC, 370 nm for PAP, and 400 nm for 4-Np) using a Spectromax Plus microtiter plate reader equipped with a monochrometer (acceptable results can be obtained with plate readers that utilize cutoff filters). Proteolytic cleavage of the ester linkage between the Nva and the chromophore was monitored at the appropriate wavelength against a no enzyme blank as a control for non-enzymatic hydrolysis. The evaluation of substrate kinetic parameters was performed over a 30-fold substrate concentration range (˜6-200 μM). Initial velocities were determined using linear regression and kinetic constants were obtained by fitting the data to the Michaelis-Menten equation using non-linear regression analysis (Mac Curve Fit 1.1, K. Raner). Turnover numbers (kcat) were calculated assuming the enzyme was fully active.
# The resulting data were fitted using linear regression and the resulting slope, 1/(Ki*(1+[S] o/Km), was used to calculate the Ki* value.
row,SMILES,Ki [nM]
1,CCCC(NC(=O)C1C[C@@H](CNC(=O)c2cccc(Oc3ccccc3)c2)CN1C(=O)[C@@H](NC(=O)c1ccccc1C(=O)O)C1CCCCC1)C(=O)C(=O)NCC(=O)N[C@H](C(N)=O)c1ccccc1 (some centres unmarked),1 to 100
2,CCCC(NC(=O)[C@@H]1C[C@@H](NC(=O)OCC(C)C)CN1C(=O)[C@@H](NC(=O)c1c(F)ccc(F)c1C(=O)O)C1CCCCC1)C(=O)C(=O)NCC(=O)N[C@H](C(N)=O)c1ccccc1 (some centres unmarked),1 to 100
3,CCCC(NC(=O)[C@@H]1C[C@@H](NS(=O)(=O)c2ccccc2)CN1C(=O)[C@@H](NC(=O)c1c(F)ccc(F)c1C(=O)O)C1CCCCC1)C(=O)C(=O)NCC(=O)N[C@H](C(N)=O)c1ccccc1 (some centres unmarked),1 to 100
4,CCCC(NC(=O)[C@@H]1C[C@@H](NC(=O)OCC(C)C)CN1C(=O)[C@@H](NC(=O)c1cc(Cl)c(Cl)cc1C(=O)O)C1CCCCC1)C(=O)C(=O)NCC(=O)N[C@H](C(N)=O)c1ccccc1 (some centres unmarked),1 to 100
5,CCCC(NC(=O)[C@@H]1C[C@@H](NS(=O)(=O)c2ccccc2)CN1C(=O)[C@@H](NC(=O)c1cc(Cl)c(Cl)cc1C(=O)O)C1CCCCC1)C(=O)C(=O)NCC(=O)N[C@H](C(N)=O)c1ccccc1 (some centres unmarked),1 to 100
6,CCCC(NC(=O)[C@@H]1C[C@@H](NC(=O)Nc2ccccc2)CN1C(=O)[C@@H](NC(=O)c1cc(Cl)c(Cl)cc1C(=O)O)C1CCCCC1)C(=O)C(=O)NCC(=O)N[C@H](C(N)=O)c1ccccc1 (some centres unmarked),1 to 100
7,CCCC(NC(=O)C1C2CCC(CC2)N1C(=O)[C@@H](NC(=O)OCC(C)C)C1CCCCC1)C(=O)C(=O)NCC(=O)N[C@H](C(N)=O)c1ccccc1 (some centres unmarked),101 to 1000
8,CCCC(NC(=O)C1CC(C)(Cc2ccccc2)CN1C(=O)[C@@H](NC(=O)OCC(C)C)C1CCCCC1)C(=O)C(=O)NCC(=O)N[C@H](C(N)=O)c1ccccc1 (some centres unmarked),101 to 1000
9,CCCC(NC(=O)C1CC(C)(C)CN1C(=O)[C@@H](NC(=O)OCC(C)C)C1CCCCC1)C(=O)C(=O)NCC(=O)N[C@H](C(N)=O)c1ccccc1 (some centres unmarked),1 to 100
10,CCCC(NC(=O)[C@@H]1CC2(CCCC2)CN1C(=O)[C@@H](NC(=O)OCC(C)C)C1CCCCC1)C(=O)C(=O)NCC(=O)NC(C(=O)N(C)C)c1ccccc1 (some centres unmarked),1 to 100
11,CCCC(NC(=O)[C@@H]1CC2(CCCC2)CN1C(=O)[C@@H](NC(=O)OCC(C)C)C1CCCCC1)C(=O)C(=O)NCC(=O)NC(C(=O)OC)c1ccccc1 (some centres unmarked),1 to 100
12,CCCC(NC(=O)[C@@H]1C[C@@](C)(CCC)CN1C(=O)[C@@H](NC(=O)OCC(C)C)C1CCCCC1)C(=O)C(=O)NCC(=O)NC(C(=O)N(C)C)c1ccccc1 (some centres unmarked),1 to 100
13,CCCC(NC(=O)C1C[C@@H](C2CCCCC2)CN1C(=O)[C@@H](NC(=O)OCC(C)C)C1CCCCC1)C(=O)C(=O)NCC(=O)N[C@H](C(N)=O)c1ccccc1 (some centres unmarked),101 to 1000
14,CCCC(NC(=O)C1C[C@@H](NS(=O)(=O)c2ccc3c(c2)CCO3)CN1C(=O)[C@@H](NC(=O)OCC(C)C)C1CCCCC1)C(=O)C(=O)NCC(=O)N[C@H](C(N)=O)c1ccccc1 (some centres unmarked),101 to 1000
15,CCCC(NC(=O)C1C[C@@H](NS(=O)(=O)c2ccc(OC)cc2)CN1C(=O)[C@@H](NC(=O)OCC(C)C)C1CCCCC1)C(=O)C(=O)NCC(=O)N[C@H](C(N)=O)c1ccccc1 (some centres unmarked),101 to 1000
16,CCCC(NC(=O)C1C[C@@H](NS(=O)(=O)c2ccc(Cl)c(Cl)c2)CN1C(=O)[C@@H](NC(=O)OCC(C)C)C1CCCCC1)C(=O)C(=O)NCC(=O)N[C@H](C(N)=O)c1ccccc1 (some centres unmarked),101 to 1000
17,CCCC(NC(=O)C1C[C@@H](NS(=O)(=O)c2ccc(Cl)cc2)CN1C(=O)[C@@H](NC(=O)OCC(C)C)C1CCCCC1)C(=O)C(=O)NCC(=O)N[C@H](C(N)=O)c1ccccc1 (some centres unmarked),101 to 1000
18,CCCC(NC(=O)C1C[C@@H](NS(=O)(=O)c2ccccc2)CN1C(=O)[C@@H](NC(=O)OCC(C)C)C1CCCCC1)C(=O)C(=O)NCC(=O)N[C@H](C(N)=O)c1ccccc1 (some centres unmarked),1 to 100
19,CCCC(NC(=O)C1C[C@@H](NC(=O)OCC(C)C)CN1C(=O)[C@@H](NC(=O)OCC(C)C)C1CCCCC1)C(=O)C(=O)NCC(=O)N[C@H](C(N)=O)c1ccccc1 (some centres unmarked),1 to 100
20,CCCC(NC(=O)C1C[C@@H](NC(=O)Nc2ccc(C(C)=O)cc2)CN1C(=O)[C@@H](NC(=O)OCC(C)C)C1CCCCC1)C(=O)C(=O)NCC(=O)N[C@H](C(N)=O)c1ccccc1 (some centres unmarked),101 to 1000
21,CCCC(NC(=O)[C@@H]1C[C@@H](NC(=O)Nc2ccc(OC)cc2)CN1C(=O)[C@@H](NC(=O)OCC(C)C)C1CCCCC1)C(=O)C(=O)NCC(=O)N[C@H](C(N)=O)c1ccccc1 (some centres unmarked),1 to 100
22,CCCC(NC(=O)[C@@H]1C[C@@H](NC(=O)Nc2cccc(Cl)c2)CN1C(=O)[C@@H](NC(=O)OCC(C)C)C1CCCCC1)C(=O)C(=O)NCC(=O)N[C@H](C(N)=O)c1ccccc1 (some centres unmarked),101 to 1000
23,CCCC(NC(=O)[C@@H]1C[C@@H](NS(=O)(=O)c2ccccc2)CN1C(=O)[C@@H](NC(=O)OCC(C)C)C(C)C)C(=O)C(=O)NCC(=O)N[C@H](C(N)=O)c1ccccc1 (some centres unmarked),101 to 1000

# Same assay, conditions: Table 5; HCV NS3/NS4A protease, 30° C., pH 6.5; read-out: Ki* Range
row,SMILES,Ki [nM]
1,C=CCCNC(=O)C(=O)C(CCC=C)NC(=O)[C@@H]1[C@@H]2[C@H](CN1C(=O)[C@@H](NC(=O)NC13CC4CC(CC(C4)C1)C3)C1Cc3ccccc3C1)C2(C)C (some centres unmarked),101 to 1000
2,C=CCNC(=O)C(=O)C(CCC)NC(=O)[C@@H]1C2C(CN1C(=O)C(NC(=O)[C@@H](NC(=O)OC(C)(C)C)C(c1ccccc1)c1ccccc1)C(C)(C)C)C2(C)C (some centres unmarked),> 1000
3,C=CCCNC(=O)C(=O)C(CCC=C)NC(=O)[C@@H]1[C@@H]2[C@H](CN1C(=O)[C@@H](NC(=O)NC13CC4CC(CC(C4)C1)C3)C(C)(C)C)C2(C)C (some centres unmarked),1 to 100
4,CCCC(NC(=O)[C@@H]1C2C(CN1C(=O)[C@@H](NC(=O)OC(C)(C)C)C1Cc3ccccc3C1)C2(C)C)C(=O)C(=O)NCCC(=O)OC(C)(C)C (some centres unmarked),101 to 1000
5,C=CCCC(NC(=O)[C@@H]1C2C(CN1C(=O)[C@@H](NC(=O)OC(C)C)C1Cc3ccccc3C1)C2(C)C)C(=O)C(=O)NCC=C (some centres unmarked),1 to 100
6,C=CCCC(NC(=O)[C@@H]1[C@H]2[C@@H](CN1C(=O)[C@@H](NC(=O)OC(C)C(C)C)C1Cc3ccccc3C1)C2(C)C)C(=O)C(=O)NCC=C (some centres unmarked),1 to 100
7,C=CCCC(NC(=O)[C@@H]1[C@H]2[C@@H](CN1C(=O)[C@@H](NC(=O)OCC(C)C)C1Cc3ccccc3C1)C2(C)C)C(=O)C(=O)NCC=C (some centres unmarked),101 to 1000
8,C=CCCNC(=O)C(=O)C(CCC=C)NC(=O)[C@@H]1[C@@H]2[C@H](CN1C(=O)[C@@H](NC(=O)NC1CCCCC1)C(C)(C)C)C2(C)C (some centres unmarked),1 to 100
9,C=CCNC(=O)C(=O)C(CCC)NC(=O)[C@@H]1[C@@H]2[C@H](CN1C(=O)[C@@H](NC(=O)NC(C)(C)C)C(C)(C)C)C2(C)C (some centres unmarked),101 to 1000
10,C=CCNC(=O)C(=O)C(CCC)NC(=O)[C@@H]1[C@@H]2[C@H](CN1C(=O)[C@@H](NC(=O)NC(C)(C)C)C1CCCCC1)C2(C)C (some centres unmarked),> 1000
11,C=CCCC(NC(=O)[C@@H]1C2C(CN1C(=O)[C@@H](NC(=O)OCC(C)(C)C)C1Cc3ccccc3C1)C2(C)C)C(=O)C(=O)NCC=C (some centres unmarked),1 to 100
12,C=CCCNC(=O)C(=O)C(CCC=C)NC(=O)[C@@H]1[C@@H]2[C@H](CN1C(=O)[C@@H](NC(=O)NC(C)(C)CC(C)(C)C)C(C)(C)C)C2(C)C (some centres unmarked),101 to 1000
13,C=CCCC(NC(=O)[C@@H]1[C@@H]2[C@H](CN1C(=O)[C@@H](NC(=O)NC1CCCC1)C(C)(C)C)C2(C)C)C(=O)C(=O)NCC=C (some centres unmarked),1 to 100
14,C=CCNC(=O)C(=O)C(CC)NC(=O)[C@@H]1[C@@H]2[C@H](CN1C(=O)[C@@H](NC(=O)OC(C)(C)C)C1CCCCC1)C2(C)C (some centres unmarked),> 1000
15,C=CCCNC(=O)C(=O)C(CC)NC(=O)[C@@H]1[C@@H]2[C@H](CN1C(=O)[C@@H](NC(=O)OC(C)(C)C)C1CCCCC1)C2(C)C (some centres unmarked),> 1000
16,C=CCNC(=O)C(=O)C(CC)NC(=O)[C@@H]1[C@@H]2[C@H](CN1C(=O)[C@@H](NC(=O)OC(C)(C)C)C(C)(C)C)C2(C)C (some centres unmarked),> 1000
17,CCCNC(=O)CNC(=O)C(=O)C(CCC)NC(=O)[C@@H]1C2C(CN1C(=O)C(NC(=O)OC(C)(C)C)C1CCCCC1)C2(C)C (some centres unmarked),101 to 1000
18,CCCC(NC(=O)[C@@H]1C2C(CN1C(=O)C(NC(=O)OC(C)(C)C)C1CCCCC1)C2(C)C)C(=O)C(=O)NCC(N)=O (some centres unmarked),101 to 1000
19,C=CCCNC(=O)C(=O)C(CCC=C)NC(=O)[C@@H]1[C@@H]2[C@H](CN1C(=O)[C@@H](NC(=O)NC(C)(C)C)C(C)(C)C)C2(C)C (some centres unmarked),1 to 100
20,C=CCCNC(=O)C(=O)C(CCC=C)NC(=O)[C@@H]1[C@@H]2[C@H](CN1C(=O)[C@@H](NC(=O)NC(C)(C)C)C1Cc3ccccc3C1)C2(C)C (some centres unmarked),1 to 100
21,C=CCCC(NC(=O)[C@@H]1[C@H]2[C@@H](CN1C(=O)[C@@H](NC(=O)NC1CCCC1)C1Cc3ccccc3C1)C2(C)C)C(=O)C(=O)NCC=C (some centres unmarked),101 to 1000
